Measured values: the BET-seq Pho4 binding data (Le et al. 2018)
The other results are listed elsewhere or left out. The energies were worked out here from pooled read counts, against the library average; single values are noisy.

The sequences below were run against T1, Pho4 (S. cerevisiae) (UniProt P07270) (assay: relative binding free energy (BET-seq); higher = weaker binding). Details: reference: library average.
T1 sequence: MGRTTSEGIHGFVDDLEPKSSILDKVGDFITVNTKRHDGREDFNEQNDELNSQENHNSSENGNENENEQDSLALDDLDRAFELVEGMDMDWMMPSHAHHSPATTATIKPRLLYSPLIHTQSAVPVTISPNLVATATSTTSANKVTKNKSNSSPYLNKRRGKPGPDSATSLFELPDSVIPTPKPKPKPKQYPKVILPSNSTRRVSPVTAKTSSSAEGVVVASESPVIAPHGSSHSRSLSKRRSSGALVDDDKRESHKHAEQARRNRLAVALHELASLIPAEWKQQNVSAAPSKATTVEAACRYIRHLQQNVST

Relative binding free energy, 0.12 kcal/mol:
TAGGTCACGTGCAATG
TGGGTCACGTGGGACT
CAGGTCACGTGTGAGA
TATATCACGTGTAGTA

Relative binding free energy, 0.22 kcal/mol:
TCGTTCACGTGTGAGT
TATATCACGTGGATTT
TTAGTCACGTGTGTAT
TGGTTCACGTGGGGGA

Relative binding free energy, 0.47 kcal/mol:
AGGTTCACGTGAGGTG

Relative binding free energy, 0.17 kcal/mol:
AGTATCACGTGGTACG
CTTCTCACGTGTGTTG
AATTACACGTGTGTGA
TCTTTCACGTGGGTGT
ATGTTCACGTGTGTAC

Relative binding free energy, -0.03 kcal/mol:
ACTGACACGTGTTGTT
AGCGACACGTGGGTTG
TGCGTCACGTGGCGGT
TTCGGCACGTGGTTCT

Relative binding free energy, -0.26 kcal/mol:
ATAGGCACGTGCATGG
TTTGGCACGTGGGCAT
CATGACACGTGGGTGT

Relative binding free energy, 0.11 kcal/mol:
TTCGTCACGTGTATGT
TTTTGCACGTGTGTTT
GACAGCACGTGAGGGT
AATTACACGTGTTCTT

Relative binding free energy, -0.2 kcal/mol:
AGTCGCACGTGGGGAT

Relative binding free energy, -0.11 kcal/mol:
GTGTGCACGTGGGCAG
ACATGCACGTGCTGGG
AACTGCACGTGTGGTT
GAGGGCACGTGGTTCT
GGCTGCACGTGGGCGC

Relative binding free energy, -0.07 kcal/mol:
GGTTGCACGTGGGTTT
TGGGGCACGTGTCTTC
GCGGGCACGTGCTTTG

Relative binding free energy, 0.29 kcal/mol:
TGGTCCACGTGAATGG
TATGACACGTGAGCTG
TTTTTCACGTGGCTGG
GATTTCACGTGGGGCG

Relative binding free energy, 0.06 kcal/mol:
GATTCCACGTGGGAGT
GGCTGCACGTGTTTTT
AAGATCACGTGTTATT

Relative binding free energy, 0.35 kcal/mol:
TTAATCACGTGATTGG

Relative binding free energy, 0.4 kcal/mol:
TTTTTCACGTGGTAGG

Relative binding free energy, -0.09 kcal/mol:
TGGGCCACGTGTCGTT
TTGGGCACGTGTTGTA

Relative binding free energy, 0.28 kcal/mol:
TAAATCACGTGAGTAG
TCAATCACGTGTGTTT
TCTTTCACGTGGTGGC
TGTGTCACGTGATGTA
TGTATCACGTGATTTT

Relative binding free energy, 0.13 kcal/mol:
CGTTGCACGTGTATCG
TTGAACACGTGTTATG
ATTGGCACGTGGATTC
TGTGCCACGTGAAGTT
TTGGTCACGTGTATAA
AGGGGCACGTGAGGTT

Relative binding free energy, 0.3 kcal/mol:
TGGGACACGTGTAAGC
TCGGGCACGTGAGCTT
TCGTTCACGTGTGTGT
GGTTTCACGTGAGTGA
TCTCTCACGTGTTGGA
TTTGCCACGTGAAAAG

Relative binding free energy, -0.13 kcal/mol:
GATGGCACGTGGGTGT
TTTGACACGTGGTGCA

Relative binding free energy, -0.1 kcal/mol:
TTTGGCACGTGGCTTG
ATTGGCACGTGTTAAG
ATAGGCACGTGTGATG

Relative binding free energy, 0.02 kcal/mol:
ATTTACACGTGGGTTG
ATAGACACGTGTGGTC
TGAGTCACGTGCTGAG
GGTCACACGTGGGGGC
AGCTGCACGTGTTTTT

Relative binding free energy, -0.08 kcal/mol:
GGTTGCACGTGCGGCA
GAAGGCACGTGCGTGT
TTTGACACGTGGGAGC
TGAAGCACGTGGTCTT

Relative binding free energy, 0.45 kcal/mol:
TGTTTCACGTGATGTC
GAGTGCACGTGAGGTT

Relative binding free energy, 0.05 kcal/mol:
TTCAGCACGTGATGGT
AGGTGCACGTGGTAAA
TGTATCACGTGGTGCG
TGTGGCACGTGTGAGT
TTGATCACGTGGTCGG

Relative binding free energy, 0.07 kcal/mol:
GTGTACACGTGCATTG
TAGGACACGTGTAGGG
TATATCACGTGTGGAA

Relative binding free energy, 0.46 kcal/mol:
GGGTTCACGTGTCTTC
GGGTTCACGTGACGGC
GTTTTCACGTGTTTAT

Relative binding free energy, 0.36 kcal/mol:
TACTTCACGTGATTTT
ATTTGCACGTGAATTC

Relative binding free energy, 0.33 kcal/mol:
GTTTCCACGTGTTAGA
TACTTCACGTGAAGGG
GTATTCACGTGTTAAT

Relative binding free energy, 0.38 kcal/mol:
GTTTTCACGTGGGATC
GGGTTCACGTGCAGTG
AGAGTCACGTGAAAAG

Relative binding free energy, 0.04 kcal/mol:
ATCGTCACGTGGTATA
TGTATCACGTGCGGTC
TCTGTCACGTGGATGG
GTCTGCACGTGGTTCG
GCAGGCACGTGTGTTG
TCGGGCACGTGAGGAG

Relative binding free energy, 0.31 kcal/mol:
ATATCCACGTGAGGAG
AAGTTCACGTGGTAGT
GGCATCACGTGTGATG
GATTTCACGTGAGCTG
GTGCTCACGTGGATAT

Relative binding free energy, -0.17 kcal/mol:
TGGGGCACGTGGCCGA

Relative binding free energy, 0.43 kcal/mol:
GGCTTCACGTGGAATT

Relative binding free energy, -0.05 kcal/mol:
TGGGGCACGTGACTTT
GAGGCCACGTGGTTAG
CGTGTCACGTGCCGGG
TAATGCACGTGTGCGA

Relative binding free energy, 0.26 kcal/mol:
GCGGTCACGTGTGAGG

Relative binding free energy, -0.04 kcal/mol:
TGTTCCACGTGGTTCG
CGTTGCACGTGGCGTT
TACGACACGTGTGTGT

Relative binding free energy, 0.37 kcal/mol:
GGATTCACGTGGTGCG

Relative binding free energy, 0 kcal/mol:
TTTGTCACGTGGTCGT
ATGGTCACGTGGGTCC
AAGGTCACGTGTTTGT
TTTCGCACGTGGAGGA
GGAGCCACGTGGATGT
ATGGTCACGTGGGGCA

Relative binding free energy, 0.24 kcal/mol:
ATATTCACGTGTTGGG

Relative binding free energy, -0.06 kcal/mol:
TCGGCCACGTGTGGTA
AAACGCACGTGGTTTT
TGGTGCACGTGTTCGG
GGGTGCACGTGGTTAG

Relative binding free energy, 0.32 kcal/mol:
TGGTTCACGTGTAGGC
AATTTCACGTGGTCGG
GTTGTCACGTGAGGCG
ATGCTCACGTGATTGT

Relative binding free energy, -0.18 kcal/mol:
TAGAACACGTGGGTTG
GGTCGCACGTGGTATG
TTGGGCACGTGGCATG
AGTGCCACGTGTGTTA
TATGGCACGTGCATAG

Relative binding free energy, 0.25 kcal/mol:
GTATTCACGTGGGTAG
TGGCGCACGTGAGATG

Relative binding free energy, -0.01 kcal/mol:
ATTCGCACGTGTGGTG
TGGGGCACGTGATGGA
AACGTCACGTGCGGGT

Relative binding free energy, 0.21 kcal/mol:
AGTATCACGTGTCGGA
GTGGTCACGTGTGGGA
TTTTTCACGTGCAGTT
TGTTACACGTGAAGGA
ATGCTCACGTGTCGGG
TAACTCACGTGTGTTG
TTTGTCACGTGTGCGG

Relative binding free energy, 0.19 kcal/mol:
TGGCTCACGTGCGATT
GGTATCACGTGTTACA

Relative binding free energy, 0.2 kcal/mol:
ATATTCACGTGGGTGT

Relative binding free energy, 0.15 kcal/mol:
GTCATCACGTGTTTGG
ATTAGCACGTGAATAG
CTTCACACGTGTGTAG
AGAGTCACGTGTGGGC
TTAGTCACGTGTGTGT
GGTATCACGTGTAGCA

Relative binding free energy, 0.16 kcal/mol:
TGGCACACGTGTGAGG
TGAGTCACGTGTTGTT
GATATCACGTGGAAGG
TATTACACGTGTGGGC
GCGGTCACGTGTGCAG
TGTCACACGTGGAGAT
CATTGCACGTGGAAGT
GGTTACACGTGTCAAG

Relative binding free energy, 0.01 kcal/mol:
TGCAACACGTGGTGGA
AGGTCCACGTGTTGGT
TTTTGCACGTGTTAGT
TAGCGCACGTGTCGTG
GTTTCCACGTGGGGGC

Relative binding free energy, 0.09 kcal/mol:
AAGTTCACGTGGGCAT
TTGTGCACGTGATGCT
GATCACACGTGGTGTG

Relative binding free energy, 0.27 kcal/mol:
TGGATCACGTGTCGTC
GGGATCACGTGTCTTT
TGGGTCACGTGGAAGT

Relative binding free energy, -0.3 kcal/mol:
GCGGGCACGTGGGGCT

Relative binding free energy, -0.24 kcal/mol:
TAGGGCACGTGGGTTA

Relative binding free energy, 0.41 kcal/mol:
TATTACACGTGAGAGG
TGTTTCACGTGAATGG

Relative binding free energy, -0.14 kcal/mol:
ATCGGCACGTGGTTAT
TGTTGCACGTGCTTGC
ATGGACACGTGGGCAT
TAGAGCACGTGATAGG

Relative binding free energy, 0.23 kcal/mol:
GGGTTCACGTGGGGGT
GTTAACACGTGATCTG
TACGGCACGTGAGTAT

Relative binding free energy, 0.48 kcal/mol:
CGTTTCACGTGATTTC

Relative binding free energy, 0.03 kcal/mol:
TAGTCCACGTGTAGGT
CTGAACACGTGGCGGG
TTAAGCACGTGTTATT
GAGGGCACGTGTGATT
TTTACCACGTGGATGT
AGCGTCACGTGGTTGA
TCAGACACGTGGTGAG

Relative binding free energy, -0.21 kcal/mol:
TACGGCACGTGGTATG
GTTCGCACGTGGGTGA

Relative binding free energy, -0.15 kcal/mol:
GTAAGCACGTGGGGGA
TGTGGCACGTGGTAAA
GTGAGCACGTGGTAGG

Relative binding free energy, 0.18 kcal/mol:
TCTATCACGTGGGCTT
TGGTTCACGTGTATCT
GCTTTCACGTGGGAAT
ATTTTCACGTGTTATG
TGTCACACGTGATTAT

Relative binding free energy, 0.08 kcal/mol:
ATAGTCACGTGGAAGG
TTATGCACGTGTGAAG
TTTGTCACGTGGTGTG
TCTATCACGTGGTGAT
AAGGTCACGTGGATAG
TGTTACACGTGTGCGG
TCTGTCACGTGGGATT

Relative binding free energy, 0.1 kcal/mol:
ATATGCACGTGATTTC
TTAGACACGTGCTAGT
AATTCCACGTGTTGTT

Relative binding free energy, -0.02 kcal/mol:
AGAGGCACGTGATGGT
TTACACACGTGCGGGT
GCGTGCACGTGGTGGA
GATGGCACGTGTCTGG
GGATGCACGTGGTGAG

Relative binding free energy, 0.14 kcal/mol:
GGGTACACGTGTGAAT
TATATCACGTGTTTTG
GAGGACACGTGGTTTA
GGTGGCACGTGAGGAA

Relative binding free energy, -0.25 kcal/mol:
GTGGCCACGTGGGGCT

Relative binding free energy, -0.16 kcal/mol:
ATAGACACGTGGGCGG
CTATGCACGTGGGTGA
